{
  "source": "PubChem BioAssay AID624417",
  "about": "(National Center for Advancing Translational Sciences (NCATS), 2012)",
  "note": "Several values for one entry are separate records, joined by “and”; a condition that tells them apart may be missing. Equal values may be shown once. Out of some 410,000 compounds screened, about 6,400 (1.6%) were called active. The inconclusive results got no clear call from the source; some entries with a clear call stand among them for comparison. Calls come from the whole dose curve; as a rule, active = well fitted inhibition curve with a large enough effect; inconclusive = small, poorly fitted or top-dose-only effect; inactive = no such curve, though single readings can be large or run the other way. Potencies beside an inconclusive call are fits to weak or partial responses and may not hold up. % is set by controls: 0 for no effect and ±100 for the full control effect; potency is the fitted concentration of half-maximal effect; tags give direction and shape of the fitted curve.",
  "data": [
    {"molecular_target": "Glucagon-like peptide 1 receptor (Homo sapiens) (UniProt P43220)", "sequence (P43220 whole entry, looked up)": "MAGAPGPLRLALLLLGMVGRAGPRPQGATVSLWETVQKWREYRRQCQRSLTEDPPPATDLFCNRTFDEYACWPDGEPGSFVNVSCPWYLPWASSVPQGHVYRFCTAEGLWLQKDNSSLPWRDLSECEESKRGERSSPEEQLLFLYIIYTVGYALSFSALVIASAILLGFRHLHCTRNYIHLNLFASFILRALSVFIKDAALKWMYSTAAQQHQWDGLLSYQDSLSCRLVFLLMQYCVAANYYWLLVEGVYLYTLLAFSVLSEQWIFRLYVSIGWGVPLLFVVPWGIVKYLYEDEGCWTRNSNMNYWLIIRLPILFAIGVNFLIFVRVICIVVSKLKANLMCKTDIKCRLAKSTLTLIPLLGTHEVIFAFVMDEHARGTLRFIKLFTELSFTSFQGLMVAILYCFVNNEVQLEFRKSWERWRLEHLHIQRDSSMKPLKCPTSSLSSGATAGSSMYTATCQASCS", "experiment": "qHTS of GLP-1 Receptor Inverse Agonists (Inhibition Mode); note: nearly all actives have a fitted effect of over 55% in size", "conditions": "HEK293 GLP-1R CRE-luciferase, luminescence, 24 h, GLP-1R form is constitutively active; activity change, negative = inhibition: at 38.3 µM (top of the series) unless noted", "how_it_was_run": "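Assay principle: reduced luminescence from a cAMP-responsive reporter in HEK293 cells co-expressing a constitutively active GLP-1R. Conditions: 24 hr compound incubation, 37 deg C, 5% CO2.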", "values": [
      {"smiles": "O=C(/C=C/c1cccs1)Nc1scc(-c2ccccc2)c1C(=O)O", "Potency": "inconclusive: 15.8 µM [inhibitor, partial curve, poor fit]"},
      {"smiles": "COc1ccc(C2=CC(=O)C[C@H](COCc3ccccc3)N(C(=O)OC(C)(C)C)O2)cc1", "Potency": "inconclusive: 12.6 µM [inhibitor, single point]"},
      {"smiles": "COc1ccc(CCNC(=O)COc2ccc(N(C)S(=O)(=O)c3ccc(Cl)cc3)cc2)cc1", "Potency": "inconclusive: 12.6 µM [inhibitor, single point]"},
      {"smiles": "CC(=O)NNC(=O)CCn1c2c(c3ccccc31)CCCC2", "Potency": "inconclusive: 6.31 µM [inhibitor, partial curve, poor fit]"},
      {"smiles": "Cc1cc(C)c(NS(=O)(=O)c2ccc3c(c2)NC(=O)CCS3)c(C)c1", "Potency": "inconclusive: 7.94 µM [inhibitor, partial curve, poor fit] and inconclusive: 5.62 µM [inhibitor, partial curve]"},
      {"smiles": "Cc1csc(NC(=O)c2c(-c3c(F)cccc3Cl)noc2C)n1", "Potency": "inconclusive: 22.4 µM [inhibitor, single point]"},
      {"smiles": "COC(=O)C1CN(C(=O)C(C)Oc2cccc(C)c2C)c2ccccc2O1", "note": "(stereo unspecified)", "Potency": "inconclusive: 20 µM [inhibitor, partial curve, poor fit]"},
      {"smiles": "NC(c1ccc(F)c(F)c1)c1nc(-c2cncnc2)cs1", "note": "(stereo unspecified)", "activity change, negative = inhibition": "inactive: 5.01%"},
      {"smiles": "Cc1cc(SCC(=O)OC/C(O)=C(\\C#N)c2nc3ccccc3[nH]2)c(C)cc1Br", "Potency": "inconclusive: 28.2 µM [inhibitor, single point]"},
      {"smiles": "O=C(Cn1c(-c2cccs2)cc2ccccc21)NCCCN1CCN(c2ccc(F)cc2)CC1", "Potency": "inconclusive: 28.2 µM [inhibitor, single point]"},
      {"smiles": "COc1cccc(CNC(=O)[C@H](CCSC)NC(=O)N2CCn3c2nc2ccccc23)c1", "Potency": "inconclusive: 8.91 µM [inhibitor, partial curve, poor fit]"},
      {"smiles": "CCC(=O)c1ccc(OCC(=O)Nc2cc(S(=O)(=O)N3CCCCC3)ccc2N2CCN(CC)CC2)cc1", "Potency": "inconclusive: 31.6 µM [inhibitor, single point]"},
      {"smiles": "CC(=C/c1ccccc1)/C=C1/SC(N2CCOCC2)=NC1=O", "activity change, negative = inhibition": "inactive: -10.2%"},
      {"smiles": "O=C(NCc1ccccc1)c1cc(C2CCCCN2C(=O)CCc2ccccc2)on1", "note": "(stereo unspecified)", "Potency": "inconclusive: 14.1 µM [inhibitor, single point]"},
      {"smiles": "CCN(c1ccccc1)S(=O)(=O)c1cc(C(=O)Nc2cccc(Cl)c2)ccc1F", "Potency": "inconclusive: 1.58 µM [inhibitor, full curve, poor fit]"},
      {"smiles": "CC(C)Oc1ccc(Br)cc1C(=O)N/N=C/c1c[nH]c2ccccc12", "Potency": "inconclusive: 1.26 µM [inhibitor, partial curve, poor fit]"},
      {"smiles": "O=C(C=Cc1ccco1)c1cc(Cl)ccc1O", "Potency": "inconclusive: 20 µM [inhibitor, single point]"},
      {"smiles": "Nc1c(C(=O)Nc2ccc3c(c2)OCCO3)nnn1Cc1ccccc1", "Potency": "inconclusive: 8.91 µM [inhibitor, single point]"},
      {"smiles": "Clc1ccc(Cn2ncc3c(NCc4ccccc4)ncnc32)cc1", "Potency": "inconclusive: 1.78 µM [inhibitor, full curve, poor fit]"},
      {"smiles": "OCC1(Cc2ccc(F)cc2F)CCCN(Cc2ccc(Cl)cc2)C1", "note": "(stereo unspecified)", "Potency": "inconclusive: 12.6 µM [inhibitor, partial curve, poor fit]"},
      {"smiles": "O=C(NC1CCCC1)c1ccc(CSc2nc3cccnc3n2Cc2ccccc2F)cc1", "Potency": "inconclusive: 5.01 µM [inhibitor, partial curve, poor fit]"},
      {"smiles": "COc1ccc(N(Cc2ccccc2)S(=O)(=O)c2cccc(C(=O)Nc3ccccn3)c2)cc1", "Potency": "inconclusive: 10 µM [inhibitor, partial curve, poor fit]"},
      {"smiles": "CCOC(=O)Cn1c(=NC(=O)c2cc(-c3cccs3)nc3ccccc23)sc2cc(S(N)(=O)=O)ccc21", "Potency": "inconclusive: 28.2 µM [inhibitor, single point]"},
      {"smiles": "Cc1cc(C)cc(NCC(=O)Nc2c(C)cccc2C)c1", "Potency": "inconclusive: 28.2 µM [inhibitor, single point]"},
      {"smiles": "Cc1cc2nc(-c3ccco3)c(CC(C)(C)C)n2c(C)c1Br", "Potency": "inconclusive: 20 µM [inhibitor, partial curve, poor fit]"},
      {"smiles": "COC(=O)[C@@]12C[C@@H](CC(=O)NCCCCc3ccccc3)C(=O)N(Cc3ccco3)C1=CCC(C)(C)C2", "Potency": "active: 10 µM"},
      {"smiles": "Cc1onc(-c2c(F)cccc2Cl)c1C(=O)N(C)C1CCCCC1", "Potency": "inconclusive: 31.6 µM [inhibitor, single point]"},
      {"smiles": "CCn1cc(CNC(=O)c2ccc(OC3CCN(Cc4ccccn4)CC3)cc2)cn1", "Potency": "inconclusive: 0.316 µM [inhibitor, full curve, poor fit]"},
      {"smiles": "Cc1cc(C)nc(SCc2ccc(C(=O)NNC(=O)Nc3cccc(Cl)c3)cc2)n1", "Potency": "inconclusive: 8.91 µM [inhibitor, partial curve, poor fit]"},
      {"smiles": "CCC1CCCCN1CCCNC(=O)Cn1ncc2c(C)n(Cc3ccccc3Cl)c(C)c2c1=O", "note": "(stereo unspecified)", "Potency": "inconclusive: 28.2 µM [inhibitor, single point]"},
      {"smiles": "CCCCSc1ccc2nc(-c3ccc(C#N)cc3)cn2c1", "Potency": "inconclusive: 22.4 µM [inhibitor, single point]"},
      {"smiles": "Cc1cccc2nc(-c3ccco3)c(Nc3ccccc3)n12", "Potency": "inconclusive: 12.6 µM [inhibitor, partial curve, poor fit]"},
      {"smiles": "O=C(NCCN1CCNC1=O)c1ccc2sc([C@@H]3O[C@H](CO)[C@H](O)[C@H](O)[C@H]3O)nc2c1", "activity change, negative = inhibition": "inactive: 9.77%"},
      {"smiles": "CCCCCOc1ccccc1Cn1c(=O)oc2ccc(C)cc21", "Potency": "inconclusive: 28.2 µM [inhibitor, single point]"},
      {"smiles": "Cc1cc(N2C(=O)C3CCC(c4ccccc4)CC3C2=O)no1", "note": "(stereo unspecified)", "activity change, negative = inhibition": "inactive: 6.15%"},
      {"smiles": "COC(=O)c1sc2ccccc2c1-n1cccc1C(=O)C(=O)Nc1ccc(OC)cc1", "Potency": "inconclusive: 8.91 µM [inhibitor, partial curve, poor fit]"},
      {"smiles": "Nc1c2c(nc3ccn(Cc4ccccc4)c(=O)c13)CCC2", "activity change, negative = inhibition": "inactive: 17.3%"},
      {"smiles": "COc1ccc(-n2sc3c(c2=S)-c2cc(OC)ccc2NC3(C)C)cc1", "Potency": "inconclusive: 2 µM [inhibitor, full curve, poor fit]"},
      {"smiles": "COCCNC(=O)CCSc1nc(-c2ccc(OC)cc2)cc(C(F)(F)F)n1", "Potency": "inconclusive: 28.2 µM [inhibitor, single point]"},
      {"smiles": "Cc1ccc(Nc2c(-c3ccc(N4CCOCC4)cc3)nc3ncccn23)c(C)c1", "Potency": "inactive"},
      {"smiles": "CC(=O)c1ccc(Nc2nc(C(N)Cc3ccc(Cl)cc3)cs2)cc1", "note": "(stereo unspecified)", "Potency": "inconclusive: 11.2 µM [inhibitor, partial curve, poor fit]"},
      {"smiles": "CCOCCCN(C)C1CCN(C(=O)c2oc3ccccc3c2NC(=O)Cc2ccc(F)cc2)CC1", "Potency": "inconclusive: 4.47 µM [inhibitor, full curve, poor fit]"},
      {"smiles": "Cc1nc(COC(=O)c2c(C)nn(-c3ccccc3)c2C)cs1", "activity change, negative = inhibition": "inactive: 36.7%"},
      {"smiles": "CC1Cc2ccccc2N1S(=O)(=O)c1cccc(C(=O)NNC(=O)c2ccccc2F)c1", "note": "(stereo unspecified)", "Potency": "inconclusive: 28.2 µM [inhibitor, single point]"},
      {"smiles": "CC(C)N(C(=O)Cn1cc(S(=O)(=O)CC(=O)Nc2ccccc2)c2ccccc21)C(C)C", "activity change, negative = inhibition": "inactive: -21%"},
      {"smiles": "CC(C)N(C(=O)CSc1nn2c(=O)c(C(C)(C)C)nnc2s1)c1ccccc1", "Potency": "inconclusive: 0.501 µM [inhibitor, full curve, poor fit]"},
      {"smiles": "Cc1cc(C)cc(Nc2ncnc3sc4c(c23)CCCC4)c1", "activity change, negative = inhibition": "inactive: -10.4%"},
      {"smiles": "CC(=O)Nc1ccc(C(=S)NCC2(N(C)C)CCCCC2)cc1", "Potency": "inconclusive: 15.8 µM [inhibitor, partial curve, poor fit]"},
      {"smiles": "OCCN1CCN(c2cnc(-c3ccsc3)cn2)CC1", "Potency": "inconclusive: 10 µM [inhibitor, single point]"},
      {"smiles": "CSc1nc(C(C)C)ccc1CNC(=O)CC(C)c1ccccc1", "note": "(stereo unspecified)", "Potency": "inconclusive: 5.62 µM [inhibitor, partial curve, poor fit]"},
      {"smiles": "CC(C)OC(=O)NCCOC(=O)Nc1ccc(Cl)cc1", "Potency": "inconclusive: 10 µM [inhibitor, single point]"},
      {"smiles": "CCc1cc2c(=O)c(-c3ccc4c(c3)OCCO4)coc2cc1OS(C)(=O)=O", "Potency": "inconclusive: 14.1 µM [inhibitor, partial curve, poor fit]"},
      {"smiles": "O=C(N/N=C/C=C/c1ccccc1)C1CC1c1ccccc1", "note": "(stereo unspecified)", "Potency": "inconclusive: 20 µM [inhibitor, single point]"},
      {"smiles": "Cc1ccn2c(Nc3ccc(C(C)C)cc3)c(-c3ccsc3)nc2c1", "activity change, negative = inhibition": "inactive: 9.75%"},
      {"smiles": "Cc1ccc2c(c1)N(CC(=O)Nc1ncccc1C)C(=O)C(C(C)C)O2", "note": "(stereo unspecified)", "Potency": "inconclusive: 11.2 µM [inhibitor, single point]"},
      {"smiles": "BrC(=C\\c1ccccc1)/C=N/n1cnnc1", "Potency": "inconclusive: 28.2 µM [inhibitor, single point]"},
      {"smiles": "C=CCN(CC=C)C(=O)C1c2ccccc2Oc2ccccc21", "Potency": "inconclusive: 28.2 µM [inhibitor, single point]"},
      {"smiles": "Cc1ccnc2c1ccc1cccnc12", "Potency": "inconclusive: 3.98 µM [inhibitor, full curve, poor fit]"},
      {"smiles": "CCN(C[C@H]1N[C@@](CC)(C(=O)OC)[C@H]2C(=O)N(Cc3ccccc3)C(=O)[C@@H]12)S(=O)(=O)c1ccc(OC(F)(F)F)cc1", "Potency": "inconclusive: 11.2 µM [inhibitor, single point]"},
      {"smiles": "O=C(CCSCc1cccc(Cl)c1)NCCc1ccccc1", "Potency": "inconclusive: 12.6 µM [inhibitor, single point]"},
      {"smiles": "NC(c1ccc(F)c(F)c1)c1nc(-c2cc(F)cc(F)c2)cs1", "note": "(stereo unspecified)", "activity change, negative = inhibition": "inactive: -13.6%"}
    ]}
  ]
}
